Experimental data as given in PubChem BioAssay AID624296 (National Center for Advancing Translational Sciences (NCATS), 2012).
Screen size: about 350,000 compounds; about 9,900 (2.8%) were called active. The shares of active, inactive and inconclusive entries below differ from those in the screen. Calls come from the whole dose curve; as a rule, active = well fitted activation curve with a large enough effect; inconclusive = small, poorly fitted or top-dose-only effect; inactive = no such curve, though single readings can be large or run the other way. Potencies of inconclusive entries are left out as doubtful fits.
Potency is the fitted concentration of half-maximal effect; tags give direction and shape of the fitted curve.

Assay: A quantitative high throughput screen for small molecules that induce DNA re-replication in MCF 10a normal breast cells. For activity, positive = re-replication: % of control where 0% means no effect. Note: nearly all actives have a fitted effect of over 50% in size.
Settings: MCF 10A DNA re-replication, Hoechst nuclear intensity, 48 h; activity, positive = re-replication: at 46.1 µM (top of the series)
For CC1(C)CCN2CCC(C)(C)c3c(O)ccc1c32, the Potency was active: 13 µM.
In the case of O=C(N/N=C/c1cc(Br)ccc1O)Nc1ccccc1, the Potency is reported as inconclusive [activator, single point].
With c1ccc(Cn2ccc(-c3cnc(-c4ccccc4)s3)n2)cc1 the Potency was inconclusive [activator, single point].
With CC(=O)c1c(N2CCOCC2)nc2ccc(Br)cc2c1-c1ccccc1 the Potency was inconclusive [activator, single point].
With CCCC(=O)C1=C(O)C(C(=O)OC)C(C)(C)CC1=Nc1ccccc1 (configuration not stated) the Potency was inconclusive [activator, partial curve, poor fit].
With CCCc1cc(C(=O)N2CCN(c3ccccc3C)CC2)cs1 the Potency was inconclusive [activator, single point].
For O=C(Nc1ccccc1)c1ccc(-c2ccccc2)s1, the Potency was inconclusive [activator, single point].
For Cc1nn(-c2cccc(Cl)c2)nc1C(=O)Nc1cccc(C(=O)NC2CC2)c1, the Potency was inconclusive [activator, single point].
For Cc1cc(N=Cc2c(O)n(-c3cccc(C(F)(F)F)c3)c(=O)c3ccccc23)no1, the “activity, positive = re-replication” value was inactive: -4.33%.
With O=C(Nc1ccccn1)c1ccc(S(=O)(=O)c2ccc(Cl)cc2)cc1 the “activity, positive = re-replication” value was inactive: -0.157%.
For COc1cc(-c2c(-c3cccc(C)c3)oc3ccccc23)cc(OC)c1OC, the Potency was inconclusive [activator, single point].
For Cn1c(SCc2cccc([N+](=O)[O-])c2)nc2ccccc2c1=O, the Potency was inconclusive [activator, full curve, poor fit].
With Oc1ccccc1CNc1ccc(Br)cn1 the Potency was inconclusive [activator, partial curve, poor fit].
In the case of Cn1c(N2CCC(C(N)=O)CC2)nc2c1c(=O)n(Cc1ccc(Cl)cc1)c(=O)n2C, the “activity, positive = re-replication” value is reported as inactive: -2.42%.
With COC(=O)C(CC(=O)c1ccc(Br)cc1)n1cccn1 (configuration not stated) the Potency was inconclusive [activator, partial curve, poor fit].
With COC(=O)c1cc(S(=O)(=O)NCC2CCN(Cc3ccc(C)cc3)CC2)c[nH]1 the “activity, positive = re-replication” value was inactive: -2.44%.
With CCOC(=O)Nc1ccc2c(c1)N(C(=O)CN(CC)CC)c1ccccc1CC2 the “activity, positive = re-replication” value was inactive: -2.98%.
In the case of CCOC(=O)C(=N/O)/C(C)=N/NC(=O)C(=O)Nc1cc(Cl)ccc1Cl, the Potency is reported as inconclusive [activator, single point].
In the case of COC(=O)[C@@]1(C)[C@H]2C(=O)N(C)C(=O)[C@H]2[C@H]2CN(C)C(=NC3CCCCC3)N21, the “activity, positive = re-replication” value is reported as inactive: -2.34%.
In the case of S=C(NCC1COc2ccccc2O1)Nc1ccc(Br)cc1 (configuration not stated), the Potency is reported as inconclusive [activator, single point].
In the case of N#C/C(=C(/O)CSc1ccccn1)c1nc2ccccc2s1, the Potency is reported as inconclusive [activator, single point].
In the case of Cc1ccc(S(=O)(=O)N2CCCCC2)cc1C(=O)N1CCCCCC1, the Potency is reported as inconclusive [activator, single point].
For O=C1OC(Nc2ccc3ncccc3c2)c2ccccc21 (configuration not stated), the Potency was inconclusive [activator, single point].
With COc1ccc(-c2nnn(CCc3nn[nH]n3)n2)cc1 the Potency was inconclusive [activator, single point].
With Cc1cccc(N2C(=O)CC(Sc3nnc(C)s3)C2=O)c1 (configuration not stated) the Potency was inconclusive [activator, single point].
For O=C(CCN1C(=O)c2ccccc2C1=O)N1CCN(Cc2ccccc2)CC1, the “activity, positive = re-replication” value was inactive: 0.125%.
With O=C(Cc1ccc(Cl)cc1)Nc1cc(S(=O)(=O)N2CCOCC2)ccc1N1CCCC1 the Potency was inconclusive [activator, single point].
With CC(C)(C)NC(=O)/C=C/c1ccc(C(F)(F)F)cc1 the Potency was inconclusive [activator, full curve].
In the case of CN1/C(=C/C(=O)c2nc(S(C)(=O)=O)ncc2Cl)C(C)(C)c2ccccc21, the Potency is reported as inconclusive [activator, full curve, poor fit].
With COc1ccc(S(=O)(=O)N2CCOCC2)cc1NC(=O)COC(=O)CCOc1ccc(C)cc1 the “activity, positive = re-replication” value was inactive: -0.518%.
In the case of O=C(/C=C\c1ccccc1)Nc1ccc(NC(=O)c2ccco2)cc1, the Potency is reported as inconclusive [activator, single point].
With FC(F)(F)c1cccc(N2CCN(C(=S)NCC3CCCO3)CC2)c1 (configuration not stated) the Potency was inconclusive [activator, partial curve].
For CC(C)CCn1cnc2c(sc3nc4c(cc32)CSC(C)(C)C4)c1=O, the Potency was inconclusive [activator, full curve].
In the case of CCCOP(=O)(c1ccc(N(C)C)cc1)C(Nc1ccccc1)c1ccc(N(C)C)cc1 (configuration not stated), the Potency is reported as inconclusive [activator, partial curve, poor fit].
For COc1ccc(CNC(=O)C2CC(c3ccc(F)cc3)=NO2)cc1 (configuration not stated), the Potency was inconclusive [activator, partial curve, poor fit].
With COc1cc(OC)c(NC(=O)CN(C)S(=O)(=O)c2ccc3[nH]c(=O)oc3c2)cc1Cl the Potency was inconclusive [activator, single point].
In the case of COc1ccc(Br)cc1CN(C)CC(=O)Nc1c(Cl)cccc1Cl, the Potency is reported as inconclusive [activator, single point].
With CC(=O)N(c1ccccc1)c1ccc([N+](=O)[O-])cc1[N+](=O)[O-] the Potency was inconclusive [activator, single point].
With CCC1CCCCN1CCCNC(=O)C1CCN(Cc2nc(-c3ccc(Cl)cc3)oc2C)CC1 (configuration not stated) the Potency was inconclusive [activator, single point].
In the case of Cc1cc(C(F)(F)F)c2c(=O)[nH]c(=O)n(Cc3ccccc3)c2n1, the Potency is reported as inconclusive [activator, partial curve, poor fit].
In the case of O=C(OCC(O)C(O)C(O)C(SCc1ccccc1)SCc1ccccc1)c1ccccc1 (configuration not stated), the Potency is reported as inconclusive [activator, single point].
For CC(C)CN1C(=O)c2ccc(C(=O)Nc3ccccn3)cc2C1=O, the activity, positive = re-replication was inactive: -184% [at 0.0737 µM].
In the case of CC(OC(=O)c1cc(-c2cccnc2)nc2ccccc12)C(=O)Nc1ccc2ccccc2c1 (configuration not stated), the Potency is reported as active: 16.4 µM.
With COc1ccc2c(C#CCCO)c(-c3ccc(S(C)(=O)=O)cc3)sc2c1 the Potency was active: 20.6 µM.
In the case of Cc1c(C(=O)N/N=C/c2ccc(Cl)cc2)[nH]c2ccc(Cl)cc12, the activity, positive = re-replication is reported as inconclusive: 184% [activator].
For Cn1cc(NC(=O)Nc2ccc(C(F)(F)F)cc2)c(C(F)(F)F)n1, the Potency was inconclusive [activator, full curve, poor fit].
With Nc1ccc(-c2nnc(-c3ccc(-c4ccccc4)cc3)o2)cc1 the Potency was inconclusive [activator, full curve, poor fit].
With CC(C)C(=O)NC(=S)Nc1ccc(S(=O)(=O)N2CCCC2)cc1 the Potency was inconclusive [activator, partial curve, poor fit].
With O=C(N/N=C/c1ccc2ccccc2c1)c1ccc(COc2ccc3c(c2)CCC3)o1 the Potency was inconclusive [activator, single point].
With CCOC(=O)C1=C(C)NC(C)=C(C(=O)OCC)C1C(=O)OCC(=O)c1ccc2c(c1)OCCO2 the “activity, positive = re-replication” value was inactive: 5.07%.
With Cc1ccc(OCC(=O)NC2CCS(=O)(=O)C2)cc1 (configuration not stated) the “activity, positive = re-replication” value was inactive: 1.97%.
For CCn1c(SCC(=O)N2CCN(c3ccc(F)cc3)CC2)nnc1-c1ccncc1, the “activity, positive = re-replication” value was inactive: -3.44%.
With COc1ccc(S(=O)(=O)NCC2CC3C=CC2C3)cc1OC (configuration not stated) the “activity, positive = re-replication” value was inactive: -1.9%.
With O=C(NCCO)c1cc2c([nH]c3ccccc32)c(-c2ccc(F)cc2)n1 the Potency was inconclusive [activator, partial curve].
In the case of O=C1C(Cl)=C(NCc2ccco2)C(=O)c2ccccc21, the Potency is reported as inconclusive [activator, single point].
In the case of COc1ccc(NC(=S)N(CCCN2CCOCC2)Cc2cn(C)c3ccccc23)cc1, the Potency is reported as inconclusive [activator, single point].
With COc1ccc(Cl)cc1NC(=O)CN(C)C(=O)CCNC(=O)c1ccccc1OC the “activity, positive = re-replication” value was inactive: 27.6%.
In the case of CC(C)(C)OC(=O)NCCCCCNC(=O)c1[nH]cnc1C(=O)N[C@@H](CCCCNC(=O)OC(C)(C)C)C(=O)OC(C)(C)C, the Potency is reported as inconclusive [activator, full curve, poor fit].
With O=C(NNc1nc2c(F)cc(F)cc2s1)C1COc2ccccc2O1 (configuration not stated) the Potency was active: 0.92 µM.
For Cc1ccc(N=Nc2c(N)nn(-c3ccccc3)c2N)cc1, the Potency was active: 14.6 µM.
In the case of O=C(CCS(=O)(=O)c1ccc(Cl)cc1)Nc1nccs1, the Potency is reported as inconclusive [activator, single point].
With O=C(CCCn1c(SCC(=O)c2ccc(F)cc2)nc2ccccc2c1=O)NCc1ccco1 the Potency was inconclusive [activator, single point].
In the case of CCc1cc2c(C)cc(C)cc2nc1SCC(=O)Nc1cc(C)on1, the Potency is reported as inconclusive [activator, partial curve, poor fit].
With CCc1ccc(NC(=O)CCCN2C(=S)NC(C)(C)CC2C)cc1 (configuration not stated) the “activity, positive = re-replication” value was inactive: 8.51%.
For Cc1ccc2nc(SCC(=O)Nc3cc([N+](=O)[O-])ccc3F)[nH]c2c1, the Potency was inconclusive [activator, single point].
For CSc1ccc(S(=O)(=O)N2c3ccccc3CC2C)cc1 (configuration not stated), the Potency was inconclusive [activator, single point].
With NC(=O)c1nsc(C(=O)N(CC(=O)NC2CCCC2)c2ccc(F)c(Cl)c2)c1N the Potency was inconclusive [activator, single point].
